Data published in PubChem BioAssay (NCI).
The source holds several records for some structures; these can differ, active in one and inactive in another.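 Testing used 96-well plates and a 48-hour single-concentration exposure. Example: -40 means 40% of the starting cells died.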 Not every entry of the source has a single result; some have several. The list is limited to them. Rule for the calls: active = growth percent below 10; inactive = the rest. The source may hold further records. The screen tested this drug many times, at the concentration stated with the values; each value is one run. Signs of the kind (2×) say how often a value occurs here.

What was measured:
Assay in all cases: NCI-60 one-dose screen, 48 h (100 = growth as untreated, 0 = no growth, -100 = all killed)
Details in all cases: 2.5 mM
BT-549 breast = system: BT-549 breast
MDA-MB-435 melanoma = system: MDA-MB-435 melanoma
SW-620 colon = system: SW-620 colon

Question: With `O=c1[nH]cc(F)c(=O)[nH]1` as the molecule, how does the growth (BT-549 breast; runs of 1995) read?
Answer: The growth was “inactive: 58.4, 37.2, 11.9, 32.5, 26.8, 45.9, 34.4, 47.9, 38.5, 17.8, 32.4, 29.1, 58, 40.7, 42.9, 55.4 (2×), 14.4, 55.5, 17.1, 36.6, 26.1, 52.9, 60.2, 39.5, 13.9, 54.4, 35.7, 13.1, 33.8, 62.3, 16.3% and active: 7.54, -22, -16, 8.96, -15.9, -11.3%”.

Question: What about the growth (BT-549 breast; runs of 1996) of the same molecule?
Answer: The growth was “inactive: 37.2, 45, 21.9, 40.1, 33.6, 68.9, 42.8, 46.8, 39.5 (2×), 32.9, 25.4, 36.4, 46.5, 64.9, 49.4, 30 (2×), 40.2 (2×), 26, 49.6, 35.2, 30.7, 48.5, 64.3, 42.2, 43.2, 33.1, 39.2, 29.4, 45.5, 39.9, 53.5, 46.1, 32.5, 33.7, 43.8, 52.2, 38.5, 34.6, 36.3, 47.2, 58.3, 41.4, 27.2, 35.8 (2×), 39.6, 34% and active: 4.66%, 4.88%, -32%”.

Question: And the growth (BT-549 breast; runs of 1997)?
Answer: Its growth is “inactive: 68, 45.8, 36.9, 61.7, 42.1, 26.8, 62.3, 44.6, 32.2, 30.5, 25.6, 18.5, 67.7, 31.6, 39.7, 34, 45.6, 38.2, 30.8, 38.3, 40.4, 45.1 (2×), 37.6, 77.8, 51.3, 24.2, 16.7, 49.9, 61.5, 47.9, 75, 20.9, 35.1, 47.5, 37.1, 51.4, 48.9, 21.8% and active: 9.73%, 5.16%”.

Question: What about the growth (BT-549 breast; runs of 1998) of the same molecule?
Answer: The growth was “inactive: 41.5, 37.3, 68.3, 41.3, 47.4, 64.8, 33, 23.2, 70.9, 31, 35.2, 70.5, 24.3, 25.4, 50, 34.2, 40.9, 45.5, 29.5, 38.1, 28.9, 86.1, 65.6% and active: -8.52%”.

Question: And the growth (BT-549 breast; runs of 1999)?
Answer: The growth was “inactive: 56.3, 25.3, 25, 30.7, 32.7, 15.9% and active: -12.3, -30.1, 8.41, -51.1, -21.2, -63.4, 4.93, 3.66, 0.616%”.

Question: And the growth (BT-549 breast; runs of 2000)?
Answer: Its growth is “active: -64.1%, 1.91%, -54% and inactive: 11.1%”.

Question: And the growth (MDA-MB-435 melanoma; runs of 1993)?
Answer: Its growth is “inactive: 21.5, 20.3, 26.7, 32.1, 36.4, 25.5, 82.9, 21, 24, 23.8, 34.3, 34.5, 26.4, 29.1, 34.7, 16, 26, 26.2, 25.7, 22, 25.4, 23, 22.9, 16.2, 23.3, 30.8, 35.9, 10.8, 32.7, 93.5, 30.6, 22.2, 89.2, 36.6, 22.8, 20.5, 34.4, 26.8, 25.2, 28.7, 29.6%”.

Question: What about the growth (MDA-MB-435 melanoma; runs of 1994) of the same molecule?
Answer: Its growth is “inactive: 26.9, 33.1, 47.9, 22.3, 24.8, 21.7, 29.5, 27.9, 24.3, 40, 27.7, 19.9, 18.9, 34.3, 27.8 (2×), 30, 30.9, 32.2, 27, 35, 24.1, 20.6, 23.9, 34.2, 28.1, 18.4, 39.9% and active: -25.5%”.

Question: What about the growth (MDA-MB-435 melanoma; runs of 1995) of the same molecule?
Answer: Its growth is “inactive: 32.9, 29.2, 15.8, 23.6, 17.3, 34.5, 37.9, 26.3, 28, 30.3, 24.2, 16.3, 32.3, 25.4, 28.2, 32.1, 19.9, 20.7, 32.2, 28.7, 22.4, 38, 27.6, 28.3 (2×), 23.2, 10.6, 35.1, 19, 19.1, 25.3, 24.7, 23.8, 19.5, 21.3% and active: 9.02%, -10.7%, -38.4%”.

Question: And the growth (MDA-MB-435 melanoma; runs of 1996)?
Answer: The growth was “inactive: 36.5, 29, 26, 39.8, 22.3 (2×), 35 (2×), 11.3, 22, 31.3 (2×), 30.2, 27.7 (2×), 25.4, 52.7, 20.8, 34.7, 34.5, 31.7, 25.5, 29.8 (2×), 28.4, 46.5, 29.6 (2×), 33, 17.2, 24.8, 33.4 (2×), 39.9, 38.6, 35.8, 34.6, 34.2, 27.1 (2×), 25.6, 25.7, 25.8, 27.3, 26.9, 37.2, 14.9, 27.6, 47.9, 37.8, 30.8, 38.4 (2×), 28.2, 29.9, 32.2, 37.1, 21.1%”.

Question: And the growth (MDA-MB-435 melanoma; runs of 1997)?
Answer: The growth was “inactive: 25.2, 42.6, 24.6, 81, 19.9, 32.1, 29.2, 34.5, 36.7, 27.1, 33.4, 32.3, 33.5, 26.6, 15.5, 32.6, 21.2, 24.1, 29.5 (2×), 32.8, 23.6, 27.3, 29.6, 18.8, 25.5, 18.3, 23.3 (2×), 13.7, 25.8, 36.2, 22.5, 14.1, 19, 18.5, 30.4, 28.2, 25.9% and active: -100 (2×), -4.75, 1.21, 4.61%”.

Question: And the growth (MDA-MB-435 melanoma; runs of 1998)?
Answer: Its growth is “active: -6.04% and inactive: 24.1, 25.5, 36, 35.7, 43.3, 35, 23.1, 21.2, 23.4, 37.7, 18.5, 28, 29.7, 22.9, 17.4, 38, 27.7, 17.8, 35.4, 20.3, 39.5, 18.7, 42.6, 19.7, 22%”.

Question: And the growth (MDA-MB-435 melanoma; runs of 1999)?
Answer: Its growth is “active: -26, -63.6, 1.66, 0.155, -15.3, 0.0634, 6.07, 1.36, 0.687, -75, -34.5% and inactive: 45.3, 10.7, 12.8, 32.3, 32.1, 74.4%”.

Question: And the growth (MDA-MB-435 melanoma; runs of 2000)?
Answer: Its growth is “active: 2.44, -30.1, -32.7, -26%”.

Question: And the growth (SW-620 colon; runs of 1991)?
Answer: Its growth is “inactive: 30.1, 23.9, 21.3, 22.7, 24.6, 20.1, 14.3 (2×), 18.8, 10.4, 19.4, 18.2, 29, 14.1, 21.9, 29.9, 15.2, 15.6% and active: -87.4%”.

Question: What about the growth (SW-620 colon; runs of 1992) of the same molecule?
Answer: Its growth is “inactive: 26.9, 17.3, 16.6 (2×), 15.3 (2×), 12.7, 28, 22.6 (2×), 14.5, 19.1 (2×), 20.8 (2×), 24.3 (3×), 26.7 (2×), 17.5, 38.8, 20.2 (2×), 10.5, 47, 42.9, 25.7, 23.3, 21.6 (2×), 13.2, 14.9, 20.3 (2×), 24.2 (2×), 23.8 (2×), 21.2, 23.6, 25.2 (2×), 20.9, 33, 21.9 (3×), 16, 24.4 (3×), 23, 24.8 (2×), 22.1 (4×), 17.8, 18.8, 26.2, 23.4 (2×), 18.5, 20.4, 28.3, 29.4 (2×), 21.3 (2×), 21.8, 15.9, 19, 23.2, 13.8, 12.1, 25.3, 16.9, 22.3 (2×), 31.8, 14.8, 22.4 (3×), 22 (2×), 26.6 (2×), 19.5, 18.2, 18 (3×), 23.7, 37.6, 19.7, 13.6, 28.8, 24.5, 29.3, 29.8, 24, 37.9, 29.9, 26.4, 17.6, 36.9, 22.8% and active: -55.6, 7.07, -14.6, -69.2, -96.5, 9.51, -68.8%”.

Question: What about the growth (SW-620 colon; runs of 1993) of the same molecule?
Answer: The growth was “inactive: 21.8, 27.2, 27.5, 28.1, 23.8, 24.2, 23.3, 28.8, 12.9, 14.9, 20.2 (2×), 19.5, 26.3, 22.6, 18.4, 24.8, 20.7, 35.9, 29.3 (2×), 18.2, 16, 19.9, 32.9, 22.5 (2×), 25.1, 26.4, 22.1 (2×), 13.9, 19.1, 23.5, 18.9, 31.1, 23.2, 18, 31.7, 21.7, 76.2, 69, 20.4, 35.5, 30.6, 30.2, 40.5, 25.7%”.

Question: What about the growth (SW-620 colon; runs of 1994) of the same molecule?
Answer: The growth was “inactive: 30.1 (2×), 23.8 (2×), 21.6, 31.1, 24.3, 29.9, 19.3, 15.5, 22.8 (2×), 27.4, 30.3 (2×), 23, 22.3 (2×), 23.5, 20.8, 16.7, 32.8 (2×), 23.2, 32.6 (2×), 23.7, 33.9, 25.5, 23.4, 32, 25.7, 28.2, 17.8, 27.3%”.

Question: What about the growth (SW-620 colon; runs of 1995) of the same molecule?
Answer: The growth was “inactive: 37.7, 18.3 (3×), 23.6, 24.2, 29, 18.9, 27.2, 20.9 (2×), 27.1, 26.5, 28.6, 30.6 (2×), 26.4, 27.7, 31.1, 24.8, 24.7, 32.8, 17.1, 22.9, 32.2, 19, 25.3, 19.6, 30.9, 16.7, 28.3, 10.8, 13.7, 12.1% and active: 0.694, -58.6, 3.7, -12.2, 8.46%”.

Question: What about the growth (SW-620 colon; runs of 1996) of the same molecule?
Answer: The growth was “inactive: 27.8, 12.6, 29.9, 35.1, 26.5 (2×), 26.3, 31.5, 35.3, 15.8, 36.9, 29.3, 32.3 (2×), 11.6, 16.1, 23.2, 13.8 (2×), 23.9, 22.9, 21.5 (2×), 16.3, 35.2, 26.2, 11.2, 29, 18.8, 19.1, 25.1, 13.6, 23.1, 20.1, 14.1, 10.5, 27.5, 27.7, 25.4, 19.7, 42.1, 29.6, 18.7, 10.9, 38.8, 20, 17.6, 31.4, 31.1% and active: 9.48, 5.8, 7.54, 3.01, -9.41, 7.83%”.

Question: And the growth (SW-620 colon; runs of 1997)?
Answer: The growth was “inactive: 28.1, 40.3, 31 (2×), 95.6, 29.1 (2×), 39.2, 24.8, 27.4, 26.1, 24, 32.3, 22.8, 17.4, 22.9, 18.2, 25.2, 36, 26.5, 22, 23.4 (2×), 14.5, 24.7, 25.3, 28.8, 26.8, 22.2 (2×), 17.2, 21.2, 19, 23.5, 30.3, 31.5, 22.6, 28.6% and active: -100, -22.2, 9.88, 3.03, -47.3, 9.78%”.
